From a collection of fitness landscapes (doi:10.1126/science.1257360)
The list shows a part of the results.

B1: PhoQ; a variant is named by its letters at X, in order, P23837 (parent)
chain: MKKLLRLFFPLSLRVRFLLATAAVVLVLSLAYGMVALIGYSVSFDKTTFRLLRGESNLFYTLAKWENNKLHVELPENIDKQSPTMTLIYDENGQLLWAQRDVPWLMKMIQPDWLKSNGFHEIEADVNDTSLLLSGDHSIQQQLQEVREDDDDAEMTHSVAVNVYPATSRMPKLTIVVVDTIPVELKSSYMVWSWFIYVLSANLLLVIPLLWVAAWWSLRPIEALAKEVRELEEHNRELLNPATTRELTSLVRNLNRLLKSERERYDKYRTTLTDLTHSLKTPLXXLQXXLRSLRSEKMSVSDAEPVMLEQISRISQQIGYYLHRASMRGGTLLSRELHPVAPLLDNLTSALNKVYQRKGVNISLDISPEISFVGEQNDFVEVMGNVLDNACKYCLEFVEISARQTDEHLYIVVEDDGPGIPLSKREVIFDRGQRVDTLRPGQGVGLAVAREITEQYEGKIVAGESMLGGARMEVIFGRQHSAPKDE

Variants of: B1
Test: enrichment ratio after two sorts for PhoP signalling (ratio (wild type AVST 3.29)); higher = more functional
Conditions: with PhoP (E. coli)

Variant	enrichment ratio
WDSQ	≤ 0.25
KIES	≤ 0.25
QRIW	≤ 0.25
DALI	≤ 0.25
LFWR	≤ 0.25
VCTG	0.404
QRMV	≤ 0.25
TAWV	12.8
TRGL	≤ 0.25
MVKL	≤ 0.25
LAFT	≤ 0.25
LEGH	≤ 0.25
HQIV	≤ 0.25
FVLW	≤ 0.25
VHDF	≤ 0.25
DNYR	≤ 0.25
KMLI	≤ 0.25
NLKL	≤ 0.25
YYNF	≤ 0.25
TDTL	1.46
HQLH	≤ 0.25
KSPH	≤ 0.25
YVNS	≤ 0.25
TNMM	7.6

Variant	enrichment ratio
YRQQ	≤ 0.25
VPAK	≤ 0.25
VCMS	≤ 0.25
DDEF	≤ 0.25
FFCP	≤ 0.25
VNTP	≤ 0.25
NNCH	≤ 0.25
MKLM	7.36
WQRQ	≤ 0.25
VWNE	≤ 0.25
EHMR	≤ 0.25
REPA	≤ 0.25
GFGY	≤ 0.25
WSRN	≤ 0.25
IQLK	≤ 0.25
SCFE	≤ 0.25
FDMN	≤ 0.25
KRCM	≤ 0.25
HMVS	≤ 0.25
TVLP	≤ 0.25
HHYW	≤ 0.25
SPTR	≤ 0.25
FAKW	≤ 0.25
YPRS	≤ 0.25

Variant	enrichment ratio
MYVL	≤ 0.25
YHNF	≤ 0.25
DFVD	≤ 0.25
RWYV	≤ 0.25
ENNV	≤ 0.25
SYKD	≤ 0.25
YTNK	≤ 0.25
VLEV	≤ 0.25
QTLA	≤ 0.25
DYLW	≤ 0.25
RLYK	≤ 0.25
GIEF	≤ 0.25
RPAT	≤ 0.25
PMSW	≤ 0.25
MAYI	21.1
WLSY	≤ 0.25
IHIY	≤ 0.25
NEYC	≤ 0.25
AWAY	≤ 0.25
MMYA	≤ 0.25
ANHI	≤ 0.25
PVYC	≤ 0.25
LGQT	≤ 0.25
GQWS	≤ 0.25

Variant	enrichment ratio
SNHF	≤ 0.25
EVDK	≤ 0.25
LRIT	≤ 0.25
DANA	≤ 0.25
WVYS	≤ 0.25
FNMH	≤ 0.25
GLCQ	8.58
WTWS	≤ 0.25
LTQR	≤ 0.25
QGDL	4.84
PRLR	≤ 0.25
REKF	≤ 0.25
SCSL	9.02
NNKC	≤ 0.25
QENP	≤ 0.25
YDRV	≤ 0.25
YEEE	≤ 0.25
RPRY	≤ 0.25
WSPM	≤ 0.25
YKCD	≤ 0.25
ARSH	≤ 0.25
DPSQ	≤ 0.25
VFPY	≤ 0.25
TTQW	≤ 0.25

Variant	enrichment ratio
VPAQ	≤ 0.25
QYRI	≤ 0.25
FEMT	3.56
LRHD	≤ 0.25
PDSP	≤ 0.25
DRKS	≤ 0.25
MHLL	≤ 0.25
YTKL	≤ 0.25
MITI	14.6
GNKV	≤ 0.25
EHLH	≤ 0.25
TMCT	19.5
QFQQ	≤ 0.25
MAII	≤ 0.25
YRTV	≤ 0.25
KCFA	≤ 0.25
RRAG	≤ 0.25
TVFV	≤ 0.25
GAYI	≤ 0.25
FGVQ	≤ 0.25
KNDN	≤ 0.25
FPAA	≤ 0.25
LHWW	≤ 0.25
WDST	≤ 0.25

Variant	enrichment ratio
FVTL	1.5
DVLP	≤ 0.25
LETT	≤ 0.25
RYYI	≤ 0.25
HHWM	≤ 0.25
TMAW	≤ 0.25
HQHW	≤ 0.25
MKWE	≤ 0.25
VHCM	≤ 0.25
KGQH	≤ 0.25
NNRV	≤ 0.25
GCRH	≤ 0.25
GAHN	≤ 0.25
ECAD	≤ 0.25
GIID	≤ 0.25
KSKM	≤ 0.25
SDLF	≤ 0.25
HFEP	≤ 0.25
RFCR	≤ 0.25
RYPV	≤ 0.25
YSFT	≤ 0.25
GTKD	≤ 0.25
RRDN	≤ 0.25
VETA	≤ 0.25

Variant	enrichment ratio
QVYN	≤ 0.25
KSEA	≤ 0.25
VPNK	≤ 0.25
RPGT	≤ 0.25
GRDK	≤ 0.25
RKPC	≤ 0.25
VDSA	≤ 0.25
ISYI	≤ 0.25
NIPE	≤ 0.25
SLHH	≤ 0.25
DGSS	≤ 0.25
SICC	17.3
YKHR	≤ 0.25
VMYC	≤ 0.25
NFRF	≤ 0.25
NDLY	≤ 0.25
SRVV	≤ 0.25
HQLQ	≤ 0.25
SVTS	7.51
SFFQ	≤ 0.25
DWKS	≤ 0.25
RRYC	≤ 0.25
FNCR	≤ 0.25
NAFS	≤ 0.25

Variant	enrichment ratio
TNFF	≤ 0.25
HIHI	≤ 0.25
SETT	12.6
NNHG	≤ 0.25
MPSS	≤ 0.25
ECHF	≤ 0.25
ADLC	3.37
FNSY	≤ 0.25
PLMA	≤ 0.25
GHQQ	≤ 0.25
MRCY	≤ 0.25
FNWI	≤ 0.25
THSR	≤ 0.25
GLDC	≤ 0.25
WTHM	≤ 0.25
DLCV	≤ 0.25
PQNV	≤ 0.25
WLHV	≤ 0.25
YEIT	≤ 0.25
LCER	≤ 0.25
ESTI	≤ 0.25
ESLK	≤ 0.25
EGYS	≤ 0.25
WKNW	≤ 0.25

Variant	enrichment ratio
RMVK	≤ 0.25
YWTR	≤ 0.25
LWAL	≤ 0.25
KSHG	≤ 0.25
LKKI	≤ 0.25
YCMV	0.293
HCKH	≤ 0.25
SHAN	≤ 0.25
LSWT	1.82
NDIP	≤ 0.25
RWQC	≤ 0.25
FMQM	≤ 0.25
CFFN	≤ 0.25
PVHV	≤ 0.25
WCMK	≤ 0.25
PKVE	≤ 0.25
NDQH	0.507
LMPL	≤ 0.25
VPTD	≤ 0.25
VQSN	≤ 0.25
EAPW	≤ 0.25
AVNM	≤ 0.25
YVQR	≤ 0.25
VQCS	≤ 0.25

Variant	enrichment ratio
DDKA	≤ 0.25
QDAW	≤ 0.25
YVNY	≤ 0.25
FGFP	≤ 0.25
QAFK	≤ 0.25
PASW	≤ 0.25
MKNK	≤ 0.25
RLEA	≤ 0.25
IFCQ	≤ 0.25
PESN	≤ 0.25
PPQM	≤ 0.25
MDYM	≤ 0.25
VCHT	≤ 0.25
RVAD	≤ 0.25
DPYE	≤ 0.25
AMIV	≤ 0.25
EAMR	≤ 0.25
PASM	≤ 0.25
FQFR	≤ 0.25
VKHY	≤ 0.25
DIYK	≤ 0.25
SNLK	3.7
SSAW	≤ 0.25
GWSV	≤ 0.25

Variant	enrichment ratio
GHPW	≤ 0.25
THRA	≤ 0.25
FPAN	≤ 0.25
HYWP	≤ 0.25
HFDI	≤ 0.25
TCFR	≤ 0.25
RNWD	≤ 0.25
FRDD	≤ 0.25
KKWR	≤ 0.25
DWGA	≤ 0.25
SNVY	1.11
AHFM	≤ 0.25
YLFQ	≤ 0.25
VSNC	≤ 0.25
QCPW	≤ 0.25
WIVA	≤ 0.25
TCMF	26.2
LWER	≤ 0.25
HWKN	≤ 0.25
FKEL	≤ 0.25
GSIV	8.6
DPTC	≤ 0.25
YMQI	≤ 0.25
DNRC	≤ 0.25

Variant	enrichment ratio
PAEV	≤ 0.25
QHYW	≤ 0.25
HRNE	≤ 0.25
SYRP	≤ 0.25
RFSP	≤ 0.25
TKRN	≤ 0.25
WQPA	≤ 0.25
AWMV	≤ 0.25
YEFM	≤ 0.25
MSMR	≤ 0.25
NAIW	≤ 0.25
SSHC	≤ 0.25
QLTQ	≤ 0.25
PVDF	0.502
ASWE	≤ 0.25
HKHP	≤ 0.25
VPNL	≤ 0.25
SIPS	0.688
EFKT	≤ 0.25
NTKC	≤ 0.25
NLLC	≤ 0.25
RMYY	≤ 0.25
PYPF	≤ 0.25
NGGF	≤ 0.25

Variant	enrichment ratio
EFPI	≤ 0.25
VFHD	≤ 0.25
FIHV	≤ 0.25
AWSL	≤ 0.25
YKHG	≤ 0.25
PTGE	≤ 0.25
LKYC	≤ 0.25
FPDL	≤ 0.25
TMER	≤ 0.25
WETK	≤ 0.25
YRCW	≤ 0.25
QSVM	≤ 0.25
WSVV	≤ 0.25
VSQK	≤ 0.25
IWRL	≤ 0.25
FMWT	≤ 0.25
KMLE	≤ 0.25
STRS	0.355
